Source: PubChem BioAssay AID2202238 (Ras Initiative Chemistry Research Team, Frederick National …, 2025)
Among all 2,200 compounds or so, fewer than 10 were called active. The list shows a part of the results. The source made no clear call on entries shown without one.

biological target: GTPase KRas (Homo sapiens) (UniProt P01116); assay: Fragment capture on engineered cysteines, share of protein labelled (AID 2202238); design: protein at 5 µM with 500 µM competing thiol for 1.5 h; conditions: KRAS G12D cysteine mutants, disulfide tethering, MALDI-TOF labeling; stronger effect = higher value; H27C mutant labeling; fragment at 500 µM
Sequence of UniProt P01116 (P01116 whole entry, looked up, the tested form may be a part): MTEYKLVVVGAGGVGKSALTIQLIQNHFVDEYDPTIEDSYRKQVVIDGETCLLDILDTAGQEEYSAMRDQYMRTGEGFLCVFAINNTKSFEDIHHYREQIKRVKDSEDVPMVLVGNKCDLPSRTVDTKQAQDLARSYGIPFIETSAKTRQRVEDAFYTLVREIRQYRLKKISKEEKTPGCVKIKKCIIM

SMILES	percent labeling [%]
O=C(NCCS)C1(Cc2cccc(Cl)c2)CCCCC1	21.2
COCCn1cc(C#N)c(NC(=O)CCS)n1	35.1
Cc1nn(-c2ccccc2)c2ncc(C(=O)NCCS)cc12	23.2
O=C(CCS)N1CCCc2c(F)cc(F)cc21	33.8
O=C(CCS)NC1COc2ccccc2C1O (configuration not stated)	28.4
O=C(NCCS)c1ccc2c(c1)CCCN2C(=O)c1ccccc1	28.2
Cc1c(C(=O)NCCS)c(=O)oc2ccc(O)cc12	41.7
CC(C)(NC(=O)c1ccccc1)C(=O)NCCS	20.9
CC(C)(C(=O)NCCS)c1csc(-c2cccs2)n1	33.4
O=C(NCCS)c1cc2c(Cl)cncc2s1	35.5
O=C(CCS)Nc1ccc(OCc2cccc(F)c2)c(F)c1	25
O=C(NCCS)c1cnn(Cc2ccccc2Cl)c1	46.6
O=C(NCCS)C1CCN(S(=O)(=O)c2cccnc2)CC1	35.1
O=C(CCS)NCc1cc(-c2ccc3c(c2)OCCO3)on1	33.2
O=C(NCCS)c1cc(Br)c2nccnc2c1	34.1
COc1ccc2c(c1)C(CCNC(=O)CCS)=CC2	28.8
O=C(NCCS)c1ccc(Cn2cccn2)cc1	45.3
O=C(CCS)Nc1ccc(-n2cncn2)nc1	39.9
Cc1cc2scc(CC(=O)NCCS)c2s1	27.8
COC(=O)c1ccc2[nH]cc(C3CCN(C(=O)CCS)CC3)c2c1	24.7
O=C(CCS)NCc1cnn(-c2ccccc2)c1	29.9
O=C(NCCS)c1csc(CCc2ccccc2)n1	30.1
CC(C(=O)NCCS)n1ccnc1-c1ccccc1 (configuration not stated)	33
O=C(NCCS)C1COc2cc(F)ccc2C1 (configuration not stated)	22.9

SMILES	percent labeling [%]
CC(C(=O)NCCS)c1cn(C)c2ccccc12 (configuration not stated)	26
O=C(CCS)N(Cc1ccco1)c1ccccc1	22.9
O=C(CCS)N1CCC(Oc2ccccn2)CC1	46.1
O=C(CCS)NCc1cnc2ccc(Br)cn12	41.7
COc1ccc(C2(NC(=O)CCS)CCC2)cn1	33.8
Cc1nn(-c2ccc(Cl)cc2)c(C)c1CC(=O)NCCS	38.7
O=C(CCS)NCCc1csc(-c2ccc(Cl)cc2)n1	32.2
O=C(CCS)N1CCN(CCn2cccn2)CC1	29.6
O=C(CC[C@@H]1CC[C@H](C(F)(F)F)O1)NCCS	29.6
CC(C(=O)NCCS)n1ccc(C(F)(F)F)n1 (configuration not stated)	24.5
CN(C(=O)c1ccc(C(=O)NCCS)cc1)c1ccccc1	41.3
O=C(NCCS)C1(n2cnnn2)CCCCC1	34.1
COc1ccc(C)c2[nH]c(C(=O)NCCS)cc12	26.4
Cn1ccc(N(Cc2ccccc2)C(=O)CCS)n1	32.4
Cn1c(CNC(=O)CCS)cc(=O)n(C)c1=O	27.9
O=C(NCCS)c1cccn1-c1ccc2c(c1)OCCO2	34.1
Cc1nn(C)c(N(C)C)c1CNC(=O)CCS	29.1
O=C(Cn1nc2n(c1=O)CCCCC2)NCCS	30.2
COc1cc(C(=O)NCCS)cc(OC)c1O	42
Cc1cc(C(=O)NCCS)nn1-c1ccccc1F	42.8
O=C(Nc1ccccc1C(=O)NCCS)c1ccccc1	23
CC1(Cc2cc(Cl)cs2)CCCN1C(=O)CCS (configuration not stated)	44.6
O=C1CCC(N2Cc3cc(C(=O)NCCS)ccc3C2=O)C(=O)N1 (configuration not stated)	42.3
O=C(CCS)NC1CC(Cn2cncn2)C1 (configuration not stated)	32.3

SMILES	percent labeling [%]
O=C(CCS)Nc1ccc(=O)n(Cc2ccccc2)c1	41.8
O=C(NCCS)C1CCN(S(=O)(=O)c2ccccc2-c2ccccc2)CC1	18.4
O=C(NCCS)C1CCCN(C(=O)c2ccncc2)C1 (configuration not stated)	37.8
O=C(CCS)N(Cc1nc(C2CCCCCC2)no1)C1CC1	33
O=C(Cc1ccc(-n2cccn2)cc1)NCCS	27.3
CCc1[nH]c(-c2ccc(Cl)cc2)nc1C(=O)NCCS	29.9
Cc1ccc(-c2nn(C)cc2C(=O)NCCS)o1	34
O=C1NCC(C(=O)NCCS)c2ccccc21 (configuration not stated)	30
Cc1ccn(CC(C)(O)C(=O)NCCS)c(=O)c1 (configuration not stated)	29.8
O=C(Cn1c(=O)ccn(Cc2ccccc2)c1=O)NCCS	37.5
O=C(NCCS)c1cnn2cc(Br)cnc12	59.1
CC1(C)CCc2nc(NC(=O)CCS)sc2C1	26.5
O=C(NCCS)c1ccc(CN2CCCC2)o1	56.8
CC(=O)N1CC(C(=O)NCCS)Oc2ccccc21 (configuration not stated)	29.3
Cc1cc(C)n(Cc2cccc(NC(=O)CCS)c2)n1	44.8
O=C(NCCS)C1CCCN1C(=O)Cc1cn2ccsc2n1 (configuration not stated)	24.2
O=C(CCS)NCc1cc(Oc2cccc(F)c2)ccn1	39.1
O=C(NCCS)c1cncn1-c1ccc(F)cc1	42.2
CCN(CC)C(C(=O)NCCS)c1cc(Cl)cc(Cl)c1 (configuration not stated)	29.5
O=C(CCS)N1Cc2ncccc2N2CCC[C@H]2C1	26.5
CC1CN(C(=O)CCS)CCc2cc(Br)c(O)cc21 (configuration not stated)	36.4
CC(CC(=O)NCCS)c1ccccc1Br (configuration not stated)	27.9
Cc1cc2occ(CC(=O)NCCS)c2cc1C	21.4
O=C(NCCS)c1cc(-c2ccco2)n(-c2cccc(Cl)c2)n1	24.4

SMILES	percent labeling [%]
O=C(NCCS)c1c(C(F)(F)F)oc2ccccc12	22.6
O=C(NCCS)c1cccnc1OCC(F)(F)F	30.7
O=C(NCCS)c1cncc(N2CCCC2=O)c1	39.8
O=C(CCS)NCCOc1ncc(C(F)(F)F)cc1Cl	30.8
COC1(c2nc(Cc3ccccc3)no2)CCN(C(=O)CCS)CC1	33.2
O=C(NCCS)C1CC12CCCc1ccccc12 (configuration not stated)	29.7
Cc1nc(C(C)(C)C)[nH]c(=O)c1C(=O)NCCS	27.2
CCc1csc(-n2cc(C(=O)NCCS)cn2)n1	37.2
Cc1ccc(N(Cc2cnn(C)c2)C(=O)CCS)cc1	41.9
O=C(NCCS)c1nn(-c2cccc(Br)c2)c2c1CCCC2	24.4
Cc1[nH]c2ccccc2c1-c1csc(NC(=O)CCS)n1	31
O=C(NCCS)C12CCC(C(F)(F)F)(CC1)CC2	35.1
O=C1COc2cc(F)c(C(=O)NCCS)cc2N1	29.3
O=C(CN(Cc1ccco1)c1cccc(Cl)c1)NCCS	22.3
Cn1c(C(=O)NCCS)cc2ccccc2c1=O	44.4
O=C(CCS)Nc1cnc(Oc2ccccc2)nc1	29.5
O=C(Cc1c[nH]c2ccccc12)NC1(C(=O)NCCS)CCCC1	14.4
O=C(CCS)NCc1cc(-c2ccco2)on1	34.5
O=C(NCCS)[C@H]1CCO[C@@H]1c1cccnc1	21.9
CC(NC(=O)CCS)C(O)c1cccc(F)c1 (configuration not stated)	30.5
CC1CN(Cc2ccccc2)CC1C(=O)NCCS (configuration not stated)	50.4
CCn1cc(Cn2cc(Cl)c(NC(=O)CCS)n2)cn1	44
Cn1nccc1-c1[nH]ncc1CNC(=O)CCS	39.5
O=C(CCS)N1CCC(c2cccc(F)c2)CC1	45.7

SMILES	percent labeling [%]
CCn1ncc(C(=O)NCCS)c1-c1ccccc1	42.4
O=C(NCCS)C1CCN(S(=O)(=O)c2ccccc2C2CCCCC2)CC1	6.7
O=C(NCCS)C1CC(=O)N(CCOc2ccccc2Cl)C1 (configuration not stated)	34.4
COc1cc(NC(=O)CCS)c(C(N)=O)cc1OC	44.3
O=C(NCCS)C1CC(=O)N(Cc2ccco2)C1 (configuration not stated)	24.3
COc1ccc2c(c1)OC(C)(C)CN(C(=O)CCS)C2	42
Cc1cc(OC(F)F)c(C(=O)NCCS)s1	32.3
O=C(NCCS)c1ccc(C(F)(F)F)c(=O)[nH]1	18.9
Cc1cc(NC(=O)CCS)nn1CC(N)=O	33.3
O=C(NCCS)c1c(C2CC2)nc2sccn12	50.6
O=C(CCS)NCC(O)(c1ncco1)C(F)(F)F (configuration not stated)	31.5
CC1(C(=O)NCCS)CCN(c2ccncc2)CC1	65
O=C(CCS)NC1(Cc2ccc(F)cc2)CC1	30.4
O=C(NCCS)c1cncc(-c2ccc3c(c2)CCO3)c1	42.6
CN1Cc2ccc(CNC(=O)CCS)cc2C1	28.4
COc1cccc2c1CCN(C(=O)CCS)CC2	34.2
Cc1ccc(CNC(=O)CCS)c(OC2CCCC2)c1	30.5
CN(Cc1ccccc1C(F)(F)F)C(=O)CCS	39.2
Cc1cc(=O)[nH]c(N2CCN(C(=O)CCS)CC2)n1	41.2
O=C(NCCS)C1CCCN(Cc2cccc(F)c2)C1 (configuration not stated)	38.9
O=C(CCS)NCCc1cc(-c2ccncc2)n[nH]1	37.2
O=C(NCCS)c1cncn1-c1ccccc1Cl	52.3
CC(C)n1nc(C(=O)NCCS)c2ccccc2c1=O	36.6
O=C(CCn1cc(Br)ccc1=O)NCCS	37.9

SMILES	percent labeling [%]
CCCN1C(=O)CCc2cc(NC(=O)CCS)ccc21	43.1
O=C(NCCS)c1cnnc(-c2ccccc2)c1	36.7
CCCn1c(=O)[nH]c(=O)c2cc(C(=O)NCCS)cnc21	32.9
Cc1noc(C)c1CN(C)CCC(=O)NCCS	29.6
O=C(NCCS)[C@@H]1Cc2ccccc2O[C@H]1C(F)(F)F	29
O=C(NCCS)c1csc(Nc2cc(F)cc(F)c2)n1	39.2
Cc1ccc(C(=O)NCCS)cc1-n1cccc1	21.8
Cc1csc2ncc(C(=O)NCCS)c(=O)n12	66.9
Cc1cc(C(F)F)n2ncc(C(=O)NCCS)c2n1	38.2
Cc1ccc(Nc2cccc(C(=O)NCCS)c2)nn1	47.8
Cc1ccn(-c2ccccc2C(=O)NCCS)n1	29.2
O=C(NCCS)C1(C2CCOCC2)CCOCC1	30.8
CC1(C)CNC(=O)c2c(C(=O)NCCS)coc2C1	31.9
O=C(NCCS)c1ccc2cc(O)ccc2c1	36.6
CC(C)CNC(=O)N1CCCC(CC(=O)NCCS)C1 (configuration not stated)	21.7
Cc1nc2ccccc2n(CCNC(=O)CCS)c1=O	41.5
COC(=O)c1ccc(CNC(=O)CCS)nc1C1CC1	44.4
Cc1c(C(=O)NCCS)[nH]c2cc(Cl)ccc12	23
CCNC(=O)CN1CCN(C(=O)CCS)CC1	25.2
CNC(=O)c1cccc(OCC(=O)NCCS)c1	37.2
O=C(CCS)NCCNC(=O)c1cc2ccccc2[nH]1	36.7
O=C(NCCS)C1(c2cccnc2)CC(F)(F)C1	39.6
